Data reported in the supplement of paper PMC10369915.
Some of the results follow. No stated cut-off is given here; in the data, active = 3.2 or more and inactive = the rest. Most of these values are background signal.
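Further: displayed peptides selected on beads carrying the immobilized SH2 domain, with library peptides lacking any tyrosine serving as negative controls.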

These binders were tested against SHP2 C-SH2 domain E139D (assay: enrichment score (SH2-bound / input frequency) (ratio); bacterial display of known human phosphotyrosine sites (pTyr-Var adds point mutants) read by sequencing; higher = stronger binding; tyrosines were phosphorylated by kinases first). Details: peptide library: pTyr-Var.
NTQRPHFKGGG [TYROBP_Y111_Y111H_YF] was tested, and the enrichment score was inactive: 1.19.
For ETELPYQELQG [TYROBP_Y91_S89L], the enrichment score was inactive: 0.516.
For KWTVDYLSQVG [TYW5_Y48], the enrichment score was inactive: 1.12.
In the case of KWTVDYLGQVG [TYW5_Y48_S50G], the enrichment score is reported as inactive: 0.94.
DLNATYCTIQG [U2SURP_Y634_R635C] was tested, and the enrichment score was inactive: 0.791.
For DTERIYDDDFF [UBA1_Y560], the enrichment score was inactive: 0.607.
For GITVAYTIPKK [UBA5_Y372], the enrichment score was inactive: 1.19.
In the case of GITVTYTIPKK [UBA5_Y372_A371T], the enrichment score is reported as inactive: 1.41.
For VDSNPYSRLVA [UBA5_Y53_M57V], the enrichment score was inactive: 0.635.
VDSNPYSHLMA [UBA5_Y53_R55H] was tested, and the enrichment score was inactive: 0.645.
In the case of TTEHIYGDNFF [UBA7_Y524], the enrichment score is reported as inactive: 0.964.
PQQLWYTHKKK [UBTF_Y207_E210K] was tested, and the enrichment score was inactive: 0.869.
ARGTRYRYVSQ [UCN3_Y95] was tested, and the enrichment score was inactive: 0.183.
For AGGTRYRYVSQ [UCN3_Y95_R91G], the enrichment score was inactive: 0.335.
With AGGTRYRFVSQ [UCN3_Y95_R91G_YF] the enrichment score was inactive: 0.556.
For ARGTRYRFVSQ [UCN3_Y95_YF], the enrichment score was inactive: 0.312.
In the case of VVQGIYGFHHH [UFSP2_Y285_Y290H_YF], the enrichment score is reported as inactive: 2.18.
EFGFRYELVQY [UGGT2_Y1289_Y1285F] was tested, and the enrichment score was inactive: 0.528.
In the case of EFGFRYELVQF [UGGT2_Y1289_Y1285F_YF], the enrichment score is reported as inactive: 0.868.

These binders were tested against SHP2 C-SH2 domain wild-type in the same assay as above. Details: peptide library: pTyr-Var.
With NTQRPHFKGGG [TYROBP_Y111_Y111H_YF] the enrichment score was inactive: 1.45.
With ETELPYQELQG [TYROBP_Y91_S89L] the enrichment score was inactive: 0.557.
KWTVDYLSQVG [TYW5_Y48] was tested, and the enrichment score was inactive: 1.06.
With KWTVDYLGQVG [TYW5_Y48_S50G] the enrichment score was inactive: 1.09.
DLNATYCTIQG [U2SURP_Y634_R635C] was tested, and the enrichment score was inactive: 0.71.
DTERIYDDDFF [UBA1_Y560] was tested, and the enrichment score was inactive: 0.581.
GITVAYTIPKK [UBA5_Y372] was tested, and the enrichment score was inactive: 1.06.
With GITVTYTIPKK [UBA5_Y372_A371T] the enrichment score was inactive: 2.09.
VDSNPYSRLVA [UBA5_Y53_M57V] was tested, and the enrichment score was inactive: 1.39.
With VDSNPYSHLMA [UBA5_Y53_R55H] the enrichment score was inactive: 0.743.
In the case of TTEHIYGDNFF [UBA7_Y524], the enrichment score is reported as inactive: 0.849.
For PQQLWYTHKKK [UBTF_Y207_E210K], the enrichment score was inactive: 0.662.
In the case of ARGTRYRYVSQ [UCN3_Y95], the enrichment score is reported as inactive: 0.224.
For AGGTRYRYVSQ [UCN3_Y95_R91G], the enrichment score was inactive: 0.314.
In the case of AGGTRYRFVSQ [UCN3_Y95_R91G_YF], the enrichment score is reported as inactive: 0.564.
For ARGTRYRFVSQ [UCN3_Y95_YF], the enrichment score was inactive: 0.255.
VVQGIYGFHHH [UFSP2_Y285_Y290H_YF] was tested, and the enrichment score was inactive: 2.07.
In the case of EFGFRYELVQY [UGGT2_Y1289_Y1285F], the enrichment score is reported as inactive: 0.517.
For EFGFRYELVQF [UGGT2_Y1289_Y1285F_YF], the enrichment score was inactive: 0.773.

The binders below were run against SHP2 N-SH2 domain L43F in the same assay as above. Details: peptide library: pTyr-Var.
For NTQRPHFKGGG [TYROBP_Y111_Y111H_YF], the enrichment score was inactive: 1.51.
In the case of ETELPYQELQG [TYROBP_Y91_S89L], the enrichment score is reported as inactive: 0.588.
For KWTVDYLSQVG [TYW5_Y48], the enrichment score was inactive: 1.07.
KWTVDYLGQVG [TYW5_Y48_S50G] was tested, and the enrichment score was inactive: 0.93.
In the case of DLNATYCTIQG [U2SURP_Y634_R635C], the enrichment score is reported as inactive: 0.698.
DTERIYDDDFF [UBA1_Y560] was tested, and the enrichment score was inactive: 0.761.
In the case of GITVAYTIPKK [UBA5_Y372], the enrichment score is reported as inactive: 0.773.
With GITVTYTIPKK [UBA5_Y372_A371T] the enrichment score was inactive: 2.09.
For VDSNPYSRLVA [UBA5_Y53_M57V], the enrichment score was inactive: 0.574.
In the case of VDSNPYSHLMA [UBA5_Y53_R55H], the enrichment score is reported as inactive: 0.598.
In the case of TTEHIYGDNFF [UBA7_Y524], the enrichment score is reported as inactive: 0.816.
With PQQLWYTHKKK [UBTF_Y207_E210K] the enrichment score was inactive: 0.678.
In the case of ARGTRYRYVSQ [UCN3_Y95], the enrichment score is reported as inactive: 0.317.
AGGTRYRYVSQ [UCN3_Y95_R91G] was tested, and the enrichment score was inactive: 0.335.
For AGGTRYRFVSQ [UCN3_Y95_R91G_YF], the enrichment score was inactive: 0.374.
For ARGTRYRFVSQ [UCN3_Y95_YF], the enrichment score was inactive: 0.24.
For VVQGIYGFHHH [UFSP2_Y285_Y290H_YF], the enrichment score was inactive: 2.38.
EFGFRYELVQY [UGGT2_Y1289_Y1285F] was tested, and the enrichment score was inactive: 0.426.
In the case of EFGFRYELVQF [UGGT2_Y1289_Y1285F_YF], the enrichment score is reported as inactive: 0.805.

What follows are binders tested against SHP2 N-SH2 domain T42A in the same assay as above. Details: peptide library: pTyr-Var.
With NTQRPHFKGGG [TYROBP_Y111_Y111H_YF] the enrichment score was inactive: 0.967.
For ETELPYQELQG [TYROBP_Y91_S89L], the enrichment score was inactive: 0.601.
KWTVDYLSQVG [TYW5_Y48] was tested, and the enrichment score was inactive: 1.17.
In the case of KWTVDYLGQVG [TYW5_Y48_S50G], the enrichment score is reported as inactive: 1.76.
DLNATYCTIQG [U2SURP_Y634_R635C] was tested, and the enrichment score was inactive: 0.621.
DTERIYDDDFF [UBA1_Y560] was tested, and the enrichment score was inactive: 0.573.
GITVAYTIPKK [UBA5_Y372] was tested, and the enrichment score was inactive: 1.62.
GITVTYTIPKK [UBA5_Y372_A371T] was tested, and the enrichment score was active: 4.1.
In the case of VDSNPYSRLVA [UBA5_Y53_M57V], the enrichment score is reported as inactive: 0.513.
With VDSNPYSHLMA [UBA5_Y53_R55H] the enrichment score was inactive: 0.484.
With TTEHIYGDNFF [UBA7_Y524] the enrichment score was inactive: 0.69.
In the case of PQQLWYTHKKK [UBTF_Y207_E210K], the enrichment score is reported as inactive: 0.531.
In the case of ARGTRYRYVSQ [UCN3_Y95], the enrichment score is reported as inactive: 0.204.
With AGGTRYRYVSQ [UCN3_Y95_R91G] the enrichment score was inactive: 0.307.
For AGGTRYRFVSQ [UCN3_Y95_R91G_YF], the enrichment score was inactive: 0.634.
ARGTRYRFVSQ [UCN3_Y95_YF] was tested, and the enrichment score was inactive: 0.238.
VVQGIYGFHHH [UFSP2_Y285_Y290H_YF] was tested, and the enrichment score was inactive: 1.98.
For EFGFRYELVQY [UGGT2_Y1289_Y1285F], the enrichment score was inactive: 0.76.
With EFGFRYELVQF [UGGT2_Y1289_Y1285F_YF] the enrichment score was inactive: 1.08.

What follows are binders tested against SHP2 N-SH2 domain T52S in the same assay as above. Details: peptide library: pTyr-Var.
NTQRPHFKGGG [TYROBP_Y111_Y111H_YF] was tested, and the enrichment score was inactive: 1.22.
ETELPYQELQG [TYROBP_Y91_S89L] was tested, and the enrichment score was inactive: 0.629.
In the case of KWTVDYLSQVG [TYW5_Y48], the enrichment score is reported as inactive: 1.03.
With KWTVDYLGQVG [TYW5_Y48_S50G] the enrichment score was inactive: 0.974.
For DLNATYCTIQG [U2SURP_Y634_R635C], the enrichment score was inactive: 0.622.
With DTERIYDDDFF [UBA1_Y560] the enrichment score was inactive: 0.543.
With GITVAYTIPKK [UBA5_Y372] the enrichment score was inactive: 0.981.
For GITVTYTIPKK [UBA5_Y372_A371T], the enrichment score was inactive: 1.92.
For VDSNPYSRLVA [UBA5_Y53_M57V], the enrichment score was inactive: 0.607.
In the case of VDSNPYSHLMA [UBA5_Y53_R55H], the enrichment score is reported as inactive: 0.642.
In the case of TTEHIYGDNFF [UBA7_Y524], the enrichment score is reported as inactive: 0.609.
In the case of PQQLWYTHKKK [UBTF_Y207_E210K], the enrichment score is reported as inactive: 0.568.
ARGTRYRYVSQ [UCN3_Y95] was tested, and the enrichment score was inactive: 0.166.
For AGGTRYRYVSQ [UCN3_Y95_R91G], the enrichment score was inactive: 0.418.
AGGTRYRFVSQ [UCN3_Y95_R91G_YF] was tested, and the enrichment score was inactive: 0.408.
With ARGTRYRFVSQ [UCN3_Y95_YF] the enrichment score was inactive: 0.268.
VVQGIYGFHHH [UFSP2_Y285_Y290H_YF] was tested, and the enrichment score was inactive: 2.29.
EFGFRYELVQY [UGGT2_Y1289_Y1285F] was tested, and the enrichment score was inactive: 0.624.
In the case of EFGFRYELVQF [UGGT2_Y1289_Y1285F_YF], the enrichment score is reported as inactive: 0.753.

What follows are binders tested against SHP2 N-SH2 domain wild-type in the same assay as above. Details: peptide library: pTyr-Var.
With NTQRPHFKGGG [TYROBP_Y111_Y111H_YF] the enrichment score was inactive: 1.39.
In the case of ETELPYQELQG [TYROBP_Y91_S89L], the enrichment score is reported as inactive: 0.768.
With KWTVDYLSQVG [TYW5_Y48] the enrichment score was inactive: 1.05.
In the case of KWTVDYLGQVG [TYW5_Y48_S50G], the enrichment score is reported as inactive: 1.21.
DLNATYCTIQG [U2SURP_Y634_R635C] was tested, and the enrichment score was inactive: 0.732.
In the case of DTERIYDDDFF [UBA1_Y560], the enrichment score is reported as inactive: 0.578.
With GITVAYTIPKK [UBA5_Y372] the enrichment score was inactive: 0.96.
With GITVTYTIPKK [UBA5_Y372_A371T] the enrichment score was inactive: 1.1.
In the case of VDSNPYSRLVA [UBA5_Y53_M57V], the enrichment score is reported as inactive: 0.702.
For VDSNPYSHLMA [UBA5_Y53_R55H], the enrichment score was inactive: 0.578.
With TTEHIYGDNFF [UBA7_Y524] the enrichment score was inactive: 0.913.
For PQQLWYTHKKK [UBTF_Y207_E210K], the enrichment score was inactive: 0.498.
For ARGTRYRYVSQ [UCN3_Y95], the enrichment score was inactive: 0.174.
With AGGTRYRYVSQ [UCN3_Y95_R91G] the enrichment score was inactive: 0.466.
In the case of AGGTRYRFVSQ [UCN3_Y95_R91G_YF], the enrichment score is reported as inactive: 0.7.
For ARGTRYRFVSQ [UCN3_Y95_YF], the enrichment score was inactive: 0.267.
For VVQGIYGFHHH [UFSP2_Y285_Y290H_YF], the enrichment score was inactive: 2.04.
With EFGFRYELVQY [UGGT2_Y1289_Y1285F] the enrichment score was inactive: 0.453.
EFGFRYELVQF [UGGT2_Y1289_Y1285F_YF] was tested, and the enrichment score was inactive: 0.85.
